The record followed here is PubChem BioAssay (NCI).

The test deals with NCI-H322M lung. As to the kind of experiment: inhibition of tumour cell growth, NCI panel, 48 h.

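Compound exposure: 48 hours, 5 concentrations, 96-well plates. The concentration for 50% growth inhibition is given as GI50. TGI denotes the concentration required for complete inhibition of growth.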 Bounds are passed on as bounds.

Take `O=C1Nc2cc(Cl)ccc2/C1=C/c1cccc(OCc2ccc(Br)cc2F)c1`: the GI50 is 21 µM and the TGI is greater than 100 µM.

`COc1ccc(NC(=O)CSc2nnc(-c3ccc(-c4nc5ccccc5[nH]4)cc3)o2)cc1`: the GI50 is 2.15 µM and the TGI was 5.99 µM.

`CCN1CCN(c2ccc(NC(=O)Nc3ccc4c(c3F)CCN4c3ccnc(C(=O)NC)c3)cc2C(F)(F)F)CC1`: the GI50 was 5.88 µM and the TGI came to 10.9 µM.
